Measured values published in the supplement of paper PMC3334620.
In all, about 33,000 sequences were measured (“E-score (-0.5 to 0.5)”: median about -0.032, highest 2% from about 0.36 on). This is one part of the list.

These sequences were tested against T1, Sko1 (UniProt Q02100) (assay: PBM E-score (8-mer binding enrichment) (E-score (-0.5 to 0.5)); higher = stronger / more preferred TF binding; most listed sequences are background and not binding sites). Details: protein concentration: 200 nM; construct: GST-full length.
T1 sequence: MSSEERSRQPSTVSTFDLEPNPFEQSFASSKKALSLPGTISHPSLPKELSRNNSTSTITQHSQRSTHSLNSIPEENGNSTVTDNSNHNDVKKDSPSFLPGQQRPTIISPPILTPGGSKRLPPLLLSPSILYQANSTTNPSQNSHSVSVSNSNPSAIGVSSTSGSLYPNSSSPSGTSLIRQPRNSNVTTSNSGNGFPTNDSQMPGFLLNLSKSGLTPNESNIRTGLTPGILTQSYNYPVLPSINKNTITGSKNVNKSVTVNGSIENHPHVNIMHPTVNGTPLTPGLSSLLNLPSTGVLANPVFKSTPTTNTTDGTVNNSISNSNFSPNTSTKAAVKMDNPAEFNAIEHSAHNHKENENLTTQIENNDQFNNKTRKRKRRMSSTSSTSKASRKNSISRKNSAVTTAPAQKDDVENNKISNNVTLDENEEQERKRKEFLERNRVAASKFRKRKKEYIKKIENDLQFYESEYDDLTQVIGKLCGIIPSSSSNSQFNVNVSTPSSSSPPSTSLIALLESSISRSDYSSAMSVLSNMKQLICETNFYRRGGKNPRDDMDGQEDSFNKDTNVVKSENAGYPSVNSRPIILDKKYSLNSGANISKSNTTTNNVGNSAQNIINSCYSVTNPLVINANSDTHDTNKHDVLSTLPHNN
Experimental: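 Universal 'all 10-mer' protein binding microarrays (Agilent AMADID 015681) probed with GST-tagged S. cerevisiae TFs (full-length or DBD) made by in vitro transcription/translation (PURExpress), about 100-200 nM. Bound TF was detected with fluorescent anti-GST. Each ungapped 8-mer (which stands for itself and its reverse complement) is scored by the PBM enrichment score (E-score), a modified Wilcoxon-Mann-Whitney statistic from -0.5 to +0.5, computed with the Universal PBM Analysis Suite. Scale: above 0.35 generally sequence-specific binding.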

| Sequence | PBM E-score |
| --- | --- |
| CCAACAAG | -0.0384 |
| CGTTACAG | 0.0116 |
| AGGGTTCA | -0.0666 |
| GTTACACA | 0.129 |
| ATAATAGG | 0.114 |
| ATCATGTC | 0.14 |
| ACTGTACT | -0.28 |
| CTCTATTA | 0.0194 |
| CAGAGGGG | -0.281 |
| AAGGCTAG | -0.0969 |
| ACCCTGTA | -0.222 |
| CGTTGGCC | -0.151 |
| CCCACGAC | -0.122 |
| TCGGGGAA | -0.0484 |
| AATTGAGC | -0.13 |
| CCAACTCC | 0.1 |
| CGGGTTAG | -0.322 |
| AGTCCGCG | -0.0968 |
| AAGGTCAG | -0.192 |
| GAGTGAGC | -0.221 |
| GGGAACAA | 0.0217 |
| CTATTGGC | -0.207 |
| CGAGGGAA | -0.154 |
| ACTCGTCT | -0.0567 |
| AATTTCAC | -0.0415 |

| Sequence | PBM E-score |
| --- | --- |
| ACATCTTA | 0.177 |
| AAGCACTC | -0.263 |
| GCGGAGCA | -0.178 |
| CGCATAGC | 0.0848 |
| ACGAAGAT | 0.0179 |
| ACACTGTC | -0.122 |
| GAGAATTA | 0.0781 |
| AGAATCCA | 0.00458 |
| ACCTCCGG | -0.282 |
| GTATGTTA | 0.28 |
| AAGATATT | 0.0367 |
| GATTAGTA | 0.0223 |
| CGACTCGC | -0.0539 |
| GATTAATA | 0.213 |
| GGGGAATA | -0.0497 |
| TAAAACAA | 0.169 |
| ATAACGAC | 0.241 |
| ACCAGACC | -0.0732 |
| CCAACGAC | -0.0877 |
| GTCTCAGA | -0.0958 |
| CGATAAAC | 0.00721 |
| GTACCGTA | 0.036 |
| CAAACGTA | 0.416 |
| ACTGACCT | -0.16 |
| GGAAAACA | -0.0739 |

| Sequence | PBM E-score |
| --- | --- |
| GATTGGGC | -0.1 |
| CTCTATCA | -0.134 |
| CAGTACGG | -0.113 |
| ATGTTTTG | 0.109 |
| AGGCTACC | -0.183 |
| CGCTATAC | 0.0594 |
| GCGTCAGC | 0.209 |
| GCTTGCCC | -0.218 |
| AAATTGCA | 0.0228 |
| AGTTGTCC | -0.0106 |
| GTCTACGA | 0.104 |
| ATTGAGTC | 0.021 |
| CGGAACGA | 0.0776 |
| GTCTAACA | -0.0034 |
| GCGCGATA | 0.147 |
| AGGACAAA | 0.0912 |
| TGCAGAAA | 0.206 |
| CATCTATC | -0.0653 |
| TCGGGACA | -0.0513 |
| AGTAGGTG | -0.0905 |
| AAACCGCA | -0.121 |
| GACCCTGA | -0.189 |
| CACGTTCA | 0.171 |
| CCCGGTTC | -0.287 |
| AAACCCGT | 0.0806 |

| Sequence | PBM E-score |
| --- | --- |
| CCGGCTTA | -0.268 |
| GATTCAGA | 0.0385 |
| CCCTACAG | -0.328 |
| ACGCTTCA | -0.056 |
| ATCTTCAC | 0.059 |
| ACATATGT | 0.29 |
| AGCTCCCC | -0.221 |
| ACAGCGGC | -0.238 |
| CGATCTGA | -0.0245 |
| ACGGTGTC | -0.138 |
| CTCTCCAG | -0.425 |
| GACCGCTC | -0.21 |
| GCGATCAC | -0.121 |
| AAAAATAT | 0.247 |
| GGCTCAAA | -0.233 |
| CCAACCTC | -0.00411 |
| ACTCGCCC | -0.31 |
| CTTGGCGA | -0.289 |
| AAGAGCTA | 0.0618 |
| AGACCAAC | -0.231 |
| CAAGGATG | -0.0796 |
| CTACATAA | 0.194 |
| GTTGCAAC | 0.254 |
| CATAGGCC | -0.145 |
| CCTGGAGC | -0.0971 |

| Sequence | PBM E-score |
| --- | --- |
| ACTATTAC | 0.283 |
| TATAACCA | 0.154 |
| CTAAAGTC | -0.217 |
| ACGGCCGG | -0.203 |
| AATCTTGC | 0.0785 |
| TAAGCGAA | 0.0172 |
| ACATTTGA | 0.224 |
| GTCAGCAA | 0.196 |
| ACCATCGA | -0.0293 |
| AGCCATTA | 0.194 |
| TGACATCA | 0.466 |
| ACACGTTC | 0.214 |
| AAGAAACC | -0.0881 |
| TAATTAGA | 0.208 |
| AATGCCGG | -0.119 |
| TAACCGTA | 0.125 |
| GGACCCAA | -0.267 |
| GCTATTCA | 0.0226 |
| ATCCAGGG | -0.258 |
| AGTCCGGG | -0.393 |
| CTGCCTAC | 0.0288 |
| CGTCGCCA | 0.0172 |
| GCCAGCTA | -0.0417 |
| CGGGTGAA | -0.0747 |
| GGCCGGAC | -0.213 |

| Sequence | PBM E-score |
| --- | --- |
| CCCGCGCG | -0.0752 |
| GAGAGAAA | 0.1 |
| GACTTTGC | -0.117 |
| AGTATCTC | 0.0412 |
| AAAACATA | 0.201 |
| GACGGATC | -0.0868 |
| AATACGTG | 0.458 |
| ATTGATTG | 0.0764 |
| ATAAATTG | 0.123 |
| GCTTTAAC | 0.0982 |
| CTAGGATA | -0.0362 |
| ACGCTATG | 0.182 |
| CCATTCCC | -0.327 |
| CGTGAACG | 0.0332 |
| AAAACGTA | 0.449 |
| CGTTCACC | 0.0821 |
| AATAACCT | 0.078 |
| ACATTCAA | 0.0223 |
| AGGCATAC | -0.00032 |
| GAGTGTCC | -0.0295 |
| AGCTTACC | -0.212 |
| GAGGTGAC | 0.256 |
| CCATCATA | 0.0672 |
| ACGTCACG | 0.486 |
| CGGAATGC | -0.272 |

| Sequence | PBM E-score |
| --- | --- |
| AATGGCCC | -0.166 |
| AAAGCAGT | 0.0167 |
| GAGACAAC | -0.139 |
| CTTATCTC | 0.0657 |
| AACGAGGG | -0.137 |
| CAGACCTG | -0.251 |
| ACTCAGAA | 0.0395 |
| AGGTTAAT | 0.13 |
| CCGGGACA | -0.201 |
| GCTGTACC | -0.221 |
| AAGGTGCG | -0.172 |
| AGGATTAG | -0.0447 |
| CGCACGCC | -0.038 |
| ACTCTCTG | -0.135 |
| ATTTGTTC | 0.309 |
| GGTCGTAA | 0.249 |
| AACTCTTA | 0.0851 |
| GGCCCGAC | -0.242 |
| GACATCGA | -0.0197 |
| ATCGAGGA | -0.0975 |
| CGCACCGC | -0.0671 |
| ATGTATTA | 0.206 |
